Assay results: PubChem BioAssay AID485364 (National Center for Advancing Translational Sciences (NCATS), 2010)
Among all 360,000 compounds or so, about 11,000 (3.1%) were called active. Inconclusive means that the source gave no clear call. Such entries were picked first, then a sample of the others. Calls come from the whole dose curve; as a rule, active = well fitted inhibition curve with a large enough effect; inconclusive = small, poorly fitted or top-dose-only effect; inactive = no such curve, though single readings can be large or run the other way. No potency is given beside an inconclusive call; the fits are too rough.

Biological target: Schistosoma mansoni thioredoxin glutathione reductase (TGR) (UniProt Q962Y6)
Assay: qHTS Assay for the Inhibitors of Schistosoma Mansoni Peroxiredoxins; note: nearly all actives have a fitted effect of over 60% in size
Details: purified TGR, DTNB reduction, TNB absorbance 405 nm; activity change, negative = inhibition: at 114 µM (top of the series) unless noted
Summary of the method: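 TGR 20 nM + NADPH 100 uM (dispensed conc.), cpd preinc 15 min RT; start with NADPH (500 uM addition) then DTNB (15 mM addition). Kinetic TNB absorbance, 405 nm filter. Four-parameter Hill fit across titration.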
% is set by controls: 0 for no effect and ±100 for the full control effect; potency is the fitted concentration of half-maximal effect; tags give direction and shape of the fitted curve.

Row | SMILES | Potency | activity change, negative = inhibition
1 | COCCCNC(=O)CS(=O)Cc1nc(-c2ccccc2C)oc1C (stereo not given) | active: 39.8 µM | 
2 | O=C(O)c1ccccc1NC(c1ccccc1)c1ccc(Cl)cc1 (stereo not given) | inactive | 
3 | COCCNC(=O)c1cc2cc(Br)cc(OC)c2oc1=O | inactive | 
4 | COc1ccc(NC2=C(c3ccccc3)C(=O)c3ccccc32)cc1Cl | inactive | 
5 | Cc1noc(C)c1CN1C(=O)c2ccc([N+](=O)[O-])cc2C1=O | inconclusive [inhibitor, partial curve] | 
6 | CC(=O)Nc1ccc(NC(=O)/C(Cl)=C/c2ccccc2)cc1 | inactive | 
7 | Cc1ccc(CN2CCNC(=O)C2CC(=O)N(C)C2CCCCC2)o1 (stereo not given) | inconclusive [inhibitor, single point] | 
8 | COC(=O)Cn1c(=NC(=O)CCS(=O)(=O)c2ccccc2)sc2c(OC)ccc(OC)c21 | inconclusive [inhibitor, full curve] | 
9 | CC(=O)Nc1cccc(NC(=O)Cc2cccs2)c1 | inconclusive [inhibitor, partial curve] | 
10 | O=C(Nc1nc2ccc(F)cc2s1)c1nc(S(=O)(=O)Cc2ccccc2F)ncc1Cl | inconclusive [inhibitor, full curve, poor fit] | 
11 | O=C(CC1C(=O)NCCN1Cc1ccccc1C(F)(F)F)NCCN1CCCCC1=O (stereo not given) | inconclusive [inhibitor, full curve] | 
12 | COc1ccc2cc(CN(CCCN3CCOCC3)Cc3nnnn3C3CCCC3)c(=O)[nH]c2c1 | inconclusive [inhibitor, full curve] | 
13 | O=C1CCCC2=C1C1O[C@](c3ccsc3)(Cc3c1ccc1ccccc31)O2 | inconclusive [inhibitor, full curve] | 
14 | CC(C)c1ccc(NCCC(=O)c2ccc(Br)cc2)cc1 | inconclusive [inhibitor, partial curve] | 
15 | CC(=O)NC(c1ccco1)c1cc(Cl)c2ccc(N(C)C)nc2c1O (stereo not given) | active: 3.98 µM | 
16 | CCCCCC(=O)N[C@@H](c1ccccc1)[C@@H](O)C(=O)O[C@H]1C[C@@]2(O)[C@@H](OC(=O)c3ccccc3)C3[C@](C)(C(=O)[C@H](OC(C)=O)C(=C1C)C2(C)C)[C@@H](O)C[C@H]1OC[C@@]31OC(C)=O (stereo not given in full) | inactive | 
17 | Cc1nnc(Nc2ccc3c(c2)OCO3)c2ccccc12 | inactive | 
18 | CC1(C)CC(=O)C(C=NCCN2CCOCC2)=C(O)C1 | inconclusive [inhibitor, full curve] | 
19 | O=C(CC1S/C(=N/N=C/c2ccco2)NC1=O)Nc1ccccc1 (stereo not given) | inactive | 
20 | COc1ccc(-c2nc(S(=O)(=O)c3ccccc3)c(N3CCCCC3)o2)cc1 | inconclusive [inhibitor, partial curve] | 
21 | COc1ccccc1N(C)S(=O)(=O)c1ccc(Cl)c(C(=O)NNC(=O)c2ccccc2O)c1 | inconclusive [inhibitor, full curve, poor fit] | 
22 | O=C(CSc1ncn[nH]1)NNC(=O)c1ccccc1 | inactive | 
23 | CC1CCN(C(=O)Nc2cccc(NC(=O)N3CCC(C)CC3)c2)CC1 | inactive | 
24 | COC(=O)C1=C(c2ccc(-c3ccccc3)c(F)c2)C[C@@H]2CC[C@H]1N2C(=O)NCCO | inconclusive [inhibitor, single point] | 

Row | SMILES | Potency | activity change, negative = inhibition
25 | CCOC(=O)c1c(C)nn(-c2ccc(NC(=O)c3c(C)noc3C)cc2)c1C | inactive | 
26 | Cc1ccc(S(=O)(=O)N(C)CCCC(=O)N2CCN(c3ccccn3)CC2)cc1 | inactive | 
27 | CCN(CC)c1ccc(S(=O)(=O)N2CCOCC2)cc1NC(=O)COC(=O)/C=C/c1ccc(C)o1 | active: 31.6 µM | 
28 | CCOc1ccccc1NC(=O)CSc1nnc(Cc2cccn2C)n1-c1ccc(F)cc1 | inconclusive [inhibitor, partial curve] | 
29 | CCCCC(=O)Nc1cccc(NC(=O)c2ccc(Br)o2)c1 | inactive | 
30 | Cc1[nH]c(-c2ccco2)nc1C(=O)O | inconclusive [inhibitor, partial curve, poor fit] | 
31 | COc1cc(CN2CCNC(=O)C2CC(=O)NCCC2=CCCCC2)cc(OC)c1 (stereo not given) | active: 39.8 µM | 
32 | Cc1ccccc1CSc1nnc(-c2ccco2)n1Cc1ccco1 |  | inconclusive: -37.1% [inhibitor]
33 | O=C(N/N=C/c1ccoc1)c1ccccc1 | inactive | 
34 | Nc1c(C(=O)Nc2ccccc2Cl)nnn1Cc1cccc(Cl)c1 | inconclusive [inhibitor, single point] | 
35 | Cc1c(CCC(=O)N[C@@H](CC(C)C)C(=O)O)c(=O)oc2cc3oc4c(c3cc12)CCCC4 | inconclusive [inhibitor, full curve] | 
36 | COc1ccccc1NC(=O)CSc1oc(-c2ccco2)nc1S(=O)(=O)c1ccc(Br)cc1 | inconclusive [inhibitor, partial curve] | 
37 | COc1ccc(CCN(C)C(=O)c2cc(-c3ccccc3)nc3ccccc23)cc1OC | inconclusive [inhibitor, partial curve] | 
38 | CCN1CCN(c2ccc(S(=O)(=O)N3CCOCC3)cc2NC(=O)CC(C)C)CC1 | inconclusive [inhibitor, single point] | 
39 | O=C(CSc1ccccc1)Nc1ccc2c(c1)OCCO2 | inconclusive [inhibitor, partial curve] | 
40 | O=C1/C(=C/c2ccc(Cl)cc2)NC(=S)N1Cc1cccnc1 | inconclusive [inhibitor, full curve, poor fit] | 
41 | CC(=O)N(C)c1ccc(NS(=O)(=O)c2cccc3nsnc23)cc1 | inconclusive [inhibitor, partial curve, poor fit] | 
42 | CCC(=O)Nc1cccc(-n2nnnc2SCC(=O)c2ccc(C)c(C)c2)c1 | inconclusive [inhibitor, single point] | 
43 | CCCCn1c(N)c(N(CC(C)C)C(=O)c2cc(-c3ccco3)nc3ccccc23)c(=O)[nH]c1=O | active: 22.4 µM | 
44 | Cc1ccc(-c2cc(C(=O)N3CCCC(C(F)(F)F)C3)c3ccccc3n2)o1 (stereo not given) | active: 28.2 µM | 
45 | CCOC(=O)C1CCN(C(=O)c2ccc(Cl)c(S(=O)(=O)N3CCOCC3)c2)CC1 | inconclusive [inhibitor, single point] | 
46 | O=S(=O)(c1ccc(Cl)c(Cl)c1)c1snnc1-c1ccccc1 | inconclusive [inhibitor, partial curve] | 
47 | CCCN(C(=O)Cn1c(=O)oc2cc(Cl)ccc21)c1ccc(C(C)C)cc1 | inactive | 
48 | c1coc(CNCCc2c[nH]c3ccccc23)c1 | inconclusive [inhibitor, full curve, poor fit] | 

Row | SMILES | Potency | activity change, negative = inhibition
49 | Cc1cc(NC(=O)CCc2ccc(-c3ccccc3)o2)no1 | inactive | 
50 | Cn1cc(NC(=O)c2cc(NC(=O)c3cc(NC=O)cn3C)cn2C)cc1C(=O)NCCC(=N)N | active: 14.1 µM | 
51 | CCOc1ccc(CN2CCNC(=O)C2CC(=O)NCc2cc(C)n(C)n2)cc1 (stereo not given) | inconclusive [inhibitor, partial curve] | 
52 | Cc1ccccc1S(=O)Cc1ccc(C(=O)NC2CC2)o1 (stereo not given) | inconclusive [inhibitor, full curve, poor fit] | 
53 | CCOc1ccccc1NC(=O)C1CC(=O)n2ncnc2N1 (stereo not given) | inconclusive [inhibitor, partial curve] | 
54 | COc1ccc(NC(=O)CNc2cc(S(=O)(=O)N3CCOCC3)ccc2NCC2CCCO2)cc1 (stereo not given) | inconclusive [inhibitor, partial curve] | 
55 | Cn1nc(NC(=O)C(F)(F)F)c2ncc(-c3ccc(Cl)cc3)nc21 | inactive | 
56 | Cc1ccc(CNC(=O)Cn2ccc(NC(=O)OCc3ccccc3)nc2=O)o1 | inconclusive [inhibitor, partial curve] | 
57 | O=C(NC(=S)NC1CCCC1)c1ccccc1Br | inconclusive [inhibitor, partial curve] | 
58 | CCC(=O)c1ccccc1OCCN1C(=O)NC(C)(C)C1=O | inconclusive [inhibitor, single point] | 
59 | COc1cc(OC)cc(-c2c(-c3cccs3)c3cc(Br)ccc3n2C)c1 | inconclusive [inhibitor, partial curve] | 
60 | CCOC(=O)c1cc(-c2ccc(C)cc2)n(CC(=O)Nc2ccc(OC)c(Cl)c2)c1C | inactive | 
61 | COc1ccc(-n2cc(C(=O)NCc3ccc(Cl)cc3)c3ccccc3c2=O)cc1 | inactive | 
62 | COc1cc(OC)cc(C(=O)Nc2nnc(SCC(=O)NCc3ccco3)s2)c1 | inconclusive [inhibitor, single point] | 
63 | N=c1sccn1CC(=O)Nc1ccccc1Cc1ccccc1 | inconclusive [inhibitor, single point] | 
64 | CN1CCN(CCCNCc2cn(CCC#N)c3ccccc23)CC1 | inconclusive [inhibitor, partial curve] | 
65 | CCOC(=O)c1ccc(NC(=O)CCc2nc(-c3ccc(Cl)cc3)no2)cc1 | inactive | 
66 | CC[n+]1c(C)cc2c(sc3ccccc32)c1C | inconclusive [inhibitor, partial curve] | 
67 | CCc1ccc(CN2C(=O)c3ccccc3C2C(=O)NCc2cccnc2)cc1 (stereo not given) | inconclusive [inhibitor, single point] | 
68 | O=C(CN1C(=O)COc2ccc(S(=O)(=O)N3CCCCC3)cc21)NCCc1ccc(Cl)cc1 | inactive | 
69 | N#CCCn1c(SCC(=O)N2CCN(S(=O)(=O)c3ccccc3)CC2)nc2ccccc21 | inactive | 
70 | O=C(CN1C(=O)c2cccc3cccc1c23)NC1CCCC1 | inactive | 
